Assay results reported in the antibiotic and cytotoxicity screens of Wong et al. (2023).
The list shows a part of the results.

The compounds below were run on S. aureus RN4220 (assay: growth inhibition call (relative growth <= 0.2)). Details: 50 µM.

Growth inhibition call, inactive:
C=CCn1cnc2c1c(=O)[nH]c(=O)n2C, C[C@@H]1CN([C@@H](C)CO)C(=O)c2cc(N(C)C)ccc2O[C@@H](C)CCCCO[C@@H]1CN(C)C(=O)Nc1ccc(C(F)(F)F)cc1, CO[C@H](CN(C)S(=O)(=O)c1cccc(Cl)c1)[C@H](C)CN([C@H](C)CO)S(=O)(=O)c1cccc(Cl)c1, Cc1noc(C)c1NC(=O)Nc1cccc2c1O[C@H](CN(C)Cc1ccc(Cl)c(Cl)c1)[C@@H](C)CN([C@@H](C)CO)C2=O, CC(C)NC(=O)Nc1ccc2c(c1)C(=O)N([C@H](C)CO)C[C@@H](C)[C@H](CN(C)C(=O)C1CCCCC1)OCCCC[C@H](C)O2, Cn1cnc(S(=O)(=O)N2C[C@@H](O)COC[C@H]3O[C@@H](CC(=O)NCc4cc(F)cc(F)c4)CC[C@@H]32)c1, C[C@@H]1CN([C@@H](C)CO)C(=O)Cc2cc(NC(=O)Cc3cn(C)c4ccccc34)ccc2O[C@@H]1CN(C)Cc1ccc(C(F)(F)F)cc1, O=C(Nc1ccccc1)C1=C[C@@H](c2ccc3c(c2)Cc2ccccc2-3)C[C@@H](OCc2ccc(CO)cc2)O1, CN(C)CC(=O)N[C@H]1C=C[C@H](CC(=O)O)O[C@@H]1CO, Cc1ccc(S(=O)(=O)N(C)C[C@H]2Oc3c(NC(=O)C4CCOCC4)cccc3C(=O)N([C@H](C)CO)C[C@H]2C)cc1, Cn1cnc(S(=O)(=O)N2C[C@H](O)COC[C@@H]3O[C@@H](CC(=O)NCc4ccc(F)cc4)CC[C@H]32)c1, CO[C@@H]1CN(C)C(=O)c2cc(NC(=O)Nc3cccc(F)c3)ccc2OC[C@H](C)N(C(=O)Nc2c(C)noc2C)C[C@@H]1C, CCn1cc(C(=O)N2CCN(C)CC2)c(=O)c2cc(S(=O)(=O)N(C)C)ccc21, COc1ccc(CN(C)C[C@@H]2OCCCC[C@H](C)Oc3ccc(NS(=O)(=O)c4ccccc4)cc3C(=O)N([C@H](C)CO)C[C@@H]2C)cc1, O=C1c2ccncc2C(=O)N1CO, CC(=O)OCCNC(=O)c1cccnc1, Cc1noc(C)c1S(=O)(=O)N(C)C[C@H]1OCCCC[C@@H](C)Oc2ccc(NC(=O)Nc3ccc(F)cc3)cc2C(=O)N([C@H](C)CO)C[C@@H]1C, CN(C)[C@H]1CS(=O)(=O)C[C@@H]1N(C)C, O=C(C[C@@H]1CC[C@@H](NS(=O)(=O)c2ccccc2)[C@@H](CO)O1)NCc1ccncn1, Nc1nc(Cl)nc2c1ncn2[C@H]1C[C@H](O)[C@@H](CO)O1, C[C@@H](Oc1cc(-n2cnc3ccc(CN4CCN(C)CC4)cc32)sc1C(N)=O)c1ccccc1C(F)(F)F, O/N=C/c1c(Cl)cccc1Cl, O=C(O)CCC(=O)Nc1ccc(S(=O)(=O)Nc2nccs2)cc1, COc1ccc(S(=O)(=O)N(C)C[C@@H]2Oc3c(NS(=O)(=O)c4cn(C)cn4)cccc3C(=O)N([C@@H](C)CO)C[C@@H]2C)cc1, CCS(=O)(=O)Nc1ccc2c(c1)C(=O)N(C)C[C@H](OC)[C@H](C)CN(CCC(F)(F)F)[C@H](C)CO2, CCC1(C)OC(=O)N(C)C1=O (stereo not drawn), CCCCn1c(N)c(N(CC)C(=O)Cc2ccc(S(=O)(=O)N3CCOCC3)s2)c(=O)[nH]c1=O, CC(C)NC(=O)Nc1ccc2c(c1)C(=O)N([C@@H](C)CO)C[C@H](C)[C@H](CN(C)C(=O)C1CCCCC1)OCCCC[C@@H](C)O2, C[C@@H]1CN([C@@H](C)CO)C(=O)c2cccc(NC(=O)Nc3ccc(C(F)(F)F)cc3)c2O[C@@H]1CN(C)S(C)(=O)=O, O=C(Nc1cccc2cccnc12)[C@@H]1[C@H](c2cccc(Br)c2)CC(=O)N1C(=O)OCc1ccccc1, C[C@H](CO)N1C[C@H](C)[C@H](CN(C)Cc2ccc(Cl)c(Cl)c2)Oc2ccc(NC(=O)Nc3ccccc3)cc2CC1=O, C[C@@H]1CCCCO[C@@H](CN(C)S(C)(=O)=O)[C@H](C)CN([C@H](C)CO)C(=O)c2cc(NS(=O)(=O)c3cn(C)cn3)ccc2O1, COc1ccc(CN(C)C[C@H]2OCCCC[C@H](C)Oc3ccc(NS(=O)(=O)c4ccc(OC)cc4)cc3C(=O)N([C@H](C)CO)C[C@@H]2C)cc1
